Some of the results follow.

For the test, the system named is PfAP2-HC AP2 domain (GST-tagged). The test can be described thus: gcPBM binding intensity (ln(normalized median fluorescence intensity)); higher = stronger DNA binding. In short, it runs like this: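 An Agilent 4 × 180k array carrying primer-extended double-stranded 36-bp intergenic genomic probes and negative controls received GST-tagged P. falciparum DNA-binding domains expressed in E. coli, about 25 μg on average, for 1 h. The binding buffer contained 1× PBS, 1% milk, 0.2 mg/ml BSA, 0.5% salmon testes DNA and 0.03% Triton X-100. Binding intensity is the top Masliner-normalised natural-log median intensity across replicate spots of either probe orientation, read after Alexa488 anti-GST antibody staining and a 488 nm scan.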
As for “AAAAAGAAAAAACTTACACACATATATACACCCATG [CACACA_site8079]”, the “gcPBM binding intensity (ln)” value was determined as 11.3. For “TATAAATAATTATATTGTACTCTTTATATTTTTCTT [XGTACX_site5335]”, the “gcPBM binding intensity (ln)” value was found to be 9.7. Take “AGAAGTTTATCTTTTAGTACGCATAAAAAAAAAAAA [XGTACX_site2359]”: the “gcPBM binding intensity (ln)” value turned out to be 9.39. With “TAAATATATATATGGTGTACCATTTTGGGTTAATAT [XGTACX_site2706]”, the “gcPBM binding intensity (ln)” value came to 9.54.

Regarding “GGGAGGATATTTCACAGTACCCAGGAAATCTGCGGA [XGTACX_site2555]”, the “gcPBM binding intensity (ln)” value is 9.2. With “TTAATATTTTGATGTGTACACATTAAAATAGTTTTA [CACACA_site5712]”, the “gcPBM binding intensity (ln)” value turned out to be 9.5.

For the sequence “TATATTATTTTTTATTGTACTTAAAAATATTATTTG [XGTACX_site1443]”, the “gcPBM binding intensity (ln)” value came out at 9.55. Consider “TTAAATAGCTGTAATTGTACAAATAAATACATAAAT [XGTACX_site3097]”, for which the “gcPBM binding intensity (ln)” value stood at 9.72.

Regarding “TATAGTAATATTTGAAGTACAAAATTAAAATAAATA [XGTACX_site7634]”, the “gcPBM binding intensity (ln)” value came out at 9.87. As for “TTATATAAGGTCTATATATAAATATTAATGATAAGG [TGCATGCA_negctrl_site354]”, the figure is 9.54; as for “TTTTTTTTGTTATGAACATGCAAATTAAAATATAAT [TGCATGCA_site954]”, 9.4. In the case of “TACTTTTCTTAAAGATGTACGTTTTAAAAATAAAAT [XGTACX_site14]”, the “gcPBM binding intensity (ln)” value amounted to 9.33. For “CAACAATTTCGTCATACACACATTCAGAATATATAT [CACACA_site2370]”, the “gcPBM binding intensity (ln)” value was 9.81. With “TAAATACATAAAAATTGTACACATTGTTTTCTCTTT [XGTACX_site6435]”, the “gcPBM binding intensity (ln)” value amounted to 9.7.

Consider “TCCTTATTTTGCAGGAGTACCATTTTTTAAAAATAC [XGTACX_site5968]”, for which the “gcPBM binding intensity (ln)” value came out at 9.46.

Take “ACAATTACTTATTTTAATTTTTTTAATCTATTGATT [CACACA_negctrl_site967]”: the “gcPBM binding intensity (ln)” value worked out at 9.57. As for “AATAACAATTATAAAAGTACAGATTTTTATTTCTAA [XGTACX_site5746]”, the “gcPBM binding intensity (ln)” value amounted to 9.4. As for “ATATTTTTTTTTCTTTCGCACACGTGAAAGAATTTC [CACACA_site8636]”, the figure is 9.9; as for “TTTTATGCTCAATTATTAAGAAATACTTTTTCTTCC [XGTACX_negctrl_site208]”, 9.44; as for “AAAATAAAAATTAACTGTACATACATTATTCAAATT [XGTACX_site6106]”, 9.65. Turning to “AAGGAAATAATTAAATGTACAAAAAAAAAAAAAATT [XGTACX_site562]”, the “gcPBM binding intensity (ln)” value amounted to 9.73. For “TACAAACAAACACATAGCAATATATGTTATCAAAAA [XGTACX_negctrl_site1]”, the “gcPBM binding intensity (ln)” value was 9.81.

Turning to “GATATAATTATATTATGGTGTTTTTGATAGATATTT [GTGCAC_negctrl_site313]”, the “gcPBM binding intensity (ln)” value came to 9.61.

As for “AGTATATACACGTGCGTGCACAGATATTCTTTTTTT [GTGCAC_site9398]”, the “gcPBM binding intensity (ln)” value is 9.71. The figure for “ATCAAACCATAAAAGAGTACAAAAGGATGATATTTT [XGTACX_site8883]” is 9.71. As for “TATTTTAAAGAGAAAACATGCATTATATAGAACATT [TGCATGCA_site328]”, the “gcPBM binding intensity (ln)” value worked out at 9.51.

On to “ATAAAATATAGATGCACACACATATAGATTTCATAC [CACACA_site7636]”, for which the “gcPBM binding intensity (ln)” value was found to be 10.1. As for “TTTTTTAATTGTGATACGTATATTATTTAATGATAA [GTGCAC_negctrl_site704]”, the figure is 9.41. As for “TGTATATTTTTTATTACACACTTTTTACTTTTTAGA [CACACA_site3069]”, the “gcPBM binding intensity (ln)” value is 9.73.

As to “TATTTATTGTGATACTTATATTATTTTATGATTAAA [CACACA_negctrl_site901]”, the “gcPBM binding intensity (ln)” value worked out at 9.28. Regarding “AGAGAGATGACAAAAAGATGAATAACGTTAAGGGAT [XGTACX_negctrl_site120]”, the “gcPBM binding intensity (ln)” value is 10.2. Regarding “ATGGAAATATATACATGTACATAAATATATATATAT [XGTACX_site8391]”, the “gcPBM binding intensity (ln)” value amounted to 9.77.

Take “AGTGGACTTTTTTTTTTTTTTTTTTTTTTTTTATTA [CACACA_negctrl_site547]”: the “gcPBM binding intensity (ln)” value worked out at 9.44. As for “ATGTTTTGCATATATTATATATTTATTTATTTTTTT [CACACA_negctrl_site729]”, the “gcPBM binding intensity (ln)” value is 9.79. As for “AGTAGTCTGGAGAAGAGTACATAGTATCTGGTAACC [XGTACX_site2043]”, the figure is 9.68; as for “GTATGGCGTATCATATGTACTAAAAAAAAATAAAAA [XGTACX_site5101]”, 9.51. The figure for “AATAAAAAAATGTCACGTACTTATTTTATTAAACCT [XGTACX_site3031]” is 9.53; for “TATTTATCATCATATTGTACATTATATATATAAAAT [XGTACX_site6675]” it is 9.39. The figure for “AAGTATGTCGACTGTTGTACTTTTATCATTTATTAT [XGTACX_site1129]” is 9.86.

Turning to “ATATACTATGATAATACATGCGATAATACATTTTTA [TGCATGCA_site387]”, the “gcPBM binding intensity (ln)” value came out at 9.66. For the sequence “ATCTGTCGACAGGACAGTACACAGTAGCCAGTAACT [XGTACX_site2001]”, the “gcPBM binding intensity (ln)” value is 9.63. As for “TTATATGCTCAATGTTGTACATGTAGATATATATAT [XGTACX_site8211]”, the “gcPBM binding intensity (ln)” value was found to be 9.61.

In the case of “ATATATATATATAGTGCACACATATAAAATATATAT [CACACA_site8884]”, the “gcPBM binding intensity (ln)” value is 9.88.

In the case of “AATATTTATGTGAAGACACACAACTGTTTATTATAT [CACACA_site3447]”, the “gcPBM binding intensity (ln)” value came out at 9.77.

Source of the values: the supplement of paper PMC11417369.
